Laboratory results taken from the RNAGym collection of RNA variant scans (doi:10.1101/gad.245936.114).
Variants at the background level are over-represented here.

B1: tRNA (parent)
chain: CUCUCGGUAGCCAAGUUGGUUUAAGGCGCAAGACUUUAAUUUAUCACUACGAAAUCUUGAGAUCGGGCGUUCGACUCGCCCCCGGGAGAUUUUUUCCUCGAGCAA

Variants of: B1
Experiment: nonsense suppression (GFP-seq) (ratio to wild type); higher = more function; SUP4oc tRNA, yeast GFP reporter sort-seq
Method in brief: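 To measure nonsense suppression, tRNA variants from a library carrying ~3% random mutations were integrated into the yeast genome alongside RFP and a GFP ochre reporter under galactose control. Growth took place in raffinose/galactose medium supplemented with 80 mg/L adenine, followed by sorting into GFP/RFP bins and Illumina sequencing of each bin (phred ≥30). For each variant with ≥100 reads and ≥30 cells, the bin median GFP/RFP values were weighted by its estimated cell share per bin and referenced to the unmutated parent tRNA.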

Variant | nonsense suppression
CUCUCGCUAGCCGAGUUGGUUUAAGGUGCAAGACUUUAAUUUAUCACUACGAAAUCUUGACAUCGGGCGUUCGACUCGCCCCCGGGAGAUUUUUUCCUCGAGCAA [G7C A13G C27U G61C] | ≤ 0.026
CUCUCGCUAGCCUAGUUGGUUUAAGUCGCAAGACUUUAAUUUAUCACUACGAAAUCUUGAGAUCGGGCGUUCGACUGGCCCCCGGGAGAUUUUUUCCUCGAGCAA [G7C A13U G26U C77G] | ≤ 0.026
CUCUCGCUAGCCUAGUUGGUUUAAGUCGCAAGACUUUAAUUUAUCACUACGAAAUCUUGAGAUCGGGCGUUCGACUUGCCCCCGGGAGAUUUUUUCCUCGAGCAA [G7C A13U G26U C77U] | ≤ 0.026
CUCUCGCUAGCCACGUUGGUUUAAGGCGCAAGACUUUAAUUUAUCACUACGAAAUCUUGAUAUCGGGCGUUCGUCUCGCCCCCGGGGGAUUUUUUCCUCGAGCAA [G7C A14C G61U A74U A87G] | ≤ 0.026
CUCUCGCUAGCCAGGUUGGUUAAUGGCGCAAGACUUUAAUUUAUCACUACGAAAUCUUGAGAUCGGGCGUUCGACUCGCCCCCGCGAGAUUUUUUCCUCGAGCAA [G7C A14G U22A A24U G85C] | ≤ 0.026
CUCUCGCUAGCCAUGUUGGUUUCAGGCGCAAGACUUUAAUUUAUCACUACGAAAUCUUGAGAUCGGGCGUUCGACUCGCCCCAGGGAGAUUUUUUCCUCGAGCAA [G7C A14U A23C C83A] | ≤ 0.026
CUCUCGCUAGCCAUGUUGGUUUAAGGCGCAAGACGUUAAUUUAUCACUACGAAAUGUUGGGAUCGGGCGUUCGACUCGCCCCCGGGAGAUUUUUUCCUCGAGCAA [G7C A14U U35G C56G A60G] | ≤ 0.026
CUCUCGCUAGCCAAGUUGGUUUCAGGCGCAAAACUUUAAUUUAUCACUACGAAAUCUUGAGAUCGGGCGUUCGACUCGCCCCCGGGAGAUUUUUUCCUCGAGCAA [G7C A23C G32A] | ≤ 0.026
CUCUCGCUAGCCAAGUUGGUUUGAGGCGCAAGACUUUAAUUUAUCACUACGAAAUCUUGAGAUCGGGCGUUCGACUCGCCCCCGGGAGAUUUUUUCCUCGAGCAA [G7C A23G] | ≤ 0.026
CUCUCGCUAGCCAAGUUGGUUUACGGCGCAAGACUUUAAUUUAUCACUACGAAAUCUUGAGAUCGGGCGUUCGACUCGCCCCCGGAAGAUUUUUUCCUCGAGCAA [G7C A24C G86A] | ≤ 0.026
CUCUCGCUAGCCAAGUUGGUUUAGGGCGCAAGACUUUAAUUUAUCACUACGAAAUCUUGAGAUCGGGCGUUCGACUCGCCCCCGGGAGAUUUUUUCCUCGAGCAA [G7C A24G] | ≤ 0.026
CUCUCGCUAGCCAAGUUGGUUUAUGGCCCAAGACUUUAAUUUAUCACUACGAAAUCUUGAGAUCGGGCGUUCGACGCGCGCCCGGGAGAUUUUUUCCUCGAGCAA [G7C A24U G28C U76G C80G] | ≤ 0.026
CUCUCGCUAGCCAAGUUGGUUUAAGGCGCAGGACUUUAAUUUAUCACUACGAAAUCUUGAGAUCGGGCUUUCGACUCGCCCCCGGGAGAUUUUUUCCUCGAGCAA [G7C A31G G69U] | ≤ 0.026
CUCUCGCUAGCCAAGUUGGUUUAAGGCGCAAGGCUUUAAUUUAUCACUACGAAAUCUUGAGAUCGGGCGUUCGACUCACCCCCGGGAGAUUUUUUCCUCGAGCAA [G7C A33G G78A] | ≤ 0.026
CUCUCGCUAGCCAAGUUGGUUUAAGGCGCAAGACUUUAAUUUAUCACUACGAACUCUUGAGAUCGGGCGUUCGACUCGCCCAUGGGAGAUUUUUUCCUCGAGCAA [G7C A54C C82A C83U] | ≤ 0.026
CUCUCGCUAGCCAAGUUGGUUUAAGGCGCAAGACUUUAAUUUAUCACUACGAAAUCUUGUGAUCGGGCGUUCGACUCGCCCCCGGGAGAUUUUUUCCUCGAGCAA [G7C A60U] | ≤ 0.026
CUCUCGCUAGCCAAGUUGGUUUAAGGCGCAAGACUUUAAUUUAUCACUACGAAAUCUUGUAAUCGGGCGUUCGACUCGCCCGCGGGAGAUUUUUUCCUCGAGCAA [G7C A60U G61A C82G] | 0.0263
CUCUCGCUAGCCAAGUUGGUUUAAGGCGCAAGACUUUAAUUUAUCACUACGAAAUCUUGAGGUCGGGCGUUCGACUCGCCCCCGGGACAUUUUUUCCUCGAGCAA [G7C A62G G88C] | ≤ 0.026
CUCUCGCUAGCCAAGUUGGUUUAAGGCGCAAGACUUUAAUUUAUCACUACGAAAUCUUGAGGUCGGGCGUACGACUCGCCCCCGGGAGAUUUUUUCCUCGAGCAA [G7C A62G U71A] | ≤ 0.026
CUCUCGCUAGCCAAGUUGGUUUAAGGCGCAAGACUUUAAUUUAUCACUACGAAAUCUUGAGUUCGGGCGUUCGACUCGCCCCCGGGAGAUUUUUUCCUCGAGCAA [G7C A62U] | ≤ 0.026
CUCUCGCUAGCCAAGUUGGUUUAAGGCGCAAGACUUUAAUUUAUCACUACGAAAUCUUGAGAUCGGGCGUUCGACUCGCCCCCGGGAGCUUUUUUCCUCGAGCAA [G7C A89C] | ≤ 0.026
CUCUCGCUAGUCAAGUUGGAUUAAGGCGCAAGACUUUAAUUUAUCACUACGAAAUCUUGAGAUCGGGCGUUCGACUCGCCCCCGGGAGAUUUUUUCCUCGAGCAA [G7C C11U U20A] | ≤ 0.026
CUCUCGCUAGCGAAGUUGGUUUAAGUCGCAAGACUUUAAUUUAUCACUACGAAAUCUUGAGAUCGGGCGUUCGACUCGCCCCCGGGAGCUUUUUUCCUCGAGCAA [G7C C12G G26U A89C] | ≤ 0.026
CUCUCGCUAGCGAAGUUGGUUUAAGGCGCAAGACUUUAAUUUAUCACUACGAAAUCUUAAGAUCGGGCGUUCGACUCGCCCCCGGGAGAUUUUUUCCUCGAGCAA [G7C C12G G59A] | ≤ 0.026
CUCUCGCUAGCGAAGUUGGUUUAAGGCGCAAGACUUUAAUUUAUCACUACGAAAUCUUGAGAUCGGGCGUUCGACUCGCCCCCGGGAAAUUUUUUCCUCGAGCAA [G7C C12G G88A] | ≤ 0.026
CUCUCGCUAGCCAAGUUGGUUUAAGGCGGAAGACUUUAAUUUAUCACUACGAAAUCUUGAGAUCGGGCGUUCGACUCGCCCCCGGGAGAUUUUUUCCUCGAGCAA [G7C C29G] | ≤ 0.026
CUCUCGCUAGCCAAGUUGGUUUAAGGCGCAAGACUUUAAUUUAUCACUACGAAAUCUUGAGAUGGGGCGUUCGUCUCGCCCCCGGGAGAUUUUUUCCUCGAGCAA [G7C C64G A74U] | ≤ 0.026
